In the supplement of paper PMC13380429:

Columns and labels:
Conditions in all cases: 72 h
[1] = system: Vero E6; test: cell viability relative to DMSO; higher = less toxic
[2] = system: U2OS; test: as above
[3] = system: Calu-3; test: as above
[4] = system: Caco-2; test: as above
[5] = system: HepG2; test: as above
[6] = system: Vero E6; test: relative viability EC50 (midpoint between 100% and the lowest measured viability); higher = less toxic
[7] = system: U2OS; test: as above
[8] = system: Calu-3; test: as above
[9] = system: Caco-2; test: as above
[10] = system: HepG2; test: as above
[11] = system: Vero E6; test: drug sensitivity score (DSS) for viability; higher = more toxic; extreme values may be limits of the assay
[12] = system: U2OS; test: as above
[13] = system: Calu-3; test: as above
[14] = system: Caco-2; test: as above
[15] = system: HepG2; test: as above

COc1ccc(-c2c(C)c(C(=O)NN3CCCCC3)nn2-c2ccc(Cl)cc2Cl)cc1
cell viability [%]
Conditions | [1] | [2] | [3] | [4] | [5]
1 nM | 107 | 96.8 | 89.1 | 106 | 103
10 nM | 108 | 98.6 | 99.3 | 99.9 | 112
100 nM | 107 | 97 | 99.4 | 97.7 | 97.5
1000 nM | 95.9 | 102 | 95.7 | 100 | 102
10000 nM | 98.1 | 92.4 | 95.2 | 93.9 | 101

Conditions | drug sensitivity score | relative viability EC50 [µM]
[6] | – | > 10
[7] | – | > 10
[8] | – | > 10
[9] | – | > 10
[10] | – | > 10
[11] | 0 | –
[12] | 0 | –
[13] | 0 | –
[14] | 0 | –
[15] | 0 | –
